# Experiments:
# [1] = system: lung (A549) and ovarian (A2780) tumor cells; test: indirect flow cytometry, cell surface binding; conditions: anti-Human IgG alexafluor 488 secondary
# Description: Indirect flow cytometry was performed using 102-5 as a primary and anti-Human IgG (H+L) preadsorbed, alexafluor 488 conjugated secondary antibody.
# Tumor cells were harvested by trypsinization and suspended in cold PBS, 10% FBS. 05% NaN3. 100 μL of cell suspension was added to 12×75 mm polystyrene tubes. 10 μg/mL of primary antibody diluted in PBS 3% BSA was added and tubes were incubated at 4° C. in the dark for 45 minutes. After washing 3 times in cold PBS, cells were resuspended in rabbit anti-Human Fc (H&L)-Alexafluor 488 (Abcam) in PBS 3% BSA and incubated at 4C in the dark for 30 minutes. After washing 3 times in cold PBS, cells were suspended in 500 μL cold PBS, 3% BSA, 0.05% NaN3 and analyzed on an Accuri C6 flow cytometer. Cells were gated for live cells based on scatter and fluorescence was plotted on a histogram using Flowing Software 2 (Turku Bioimaging).
# MCW-SL3cis cells = test: spheroid growth and viability (MTT) with cisplatin and/or antibody; type: cell-based, human
# Description: (A) A2780 apoptotic killing (casp 3/7 live imaging) after 36 hour mAb treatment (scFv clones 102-4a left, 102-5a right) and 24-hour carboplatin treatment. (B) Dose-response to up to 20 μM carboplatin in resistant A2780 cells treated with either control IgG1 or 102-5, relative to 0 carboplatin controls. (C) Kinetic killing assay (live imaging) in A2780 with human anti-CLP™1L scFv and/or 10 μM carboplatin treatment. *p<0.05, **p<0.005, ***p<0.0005. (D) Western blotting and densitometry for Akt and phospho-Akt (T308) in A2780 andA2780cis. (E) Cisplatin viability (MTT) inhibition curves for SL3 sensitive (parental) and resistant (SL3cis) tumor spheroids, pAkt (T308) and total Akt western blots on SL3 and SL3cis spheroid lysates (inset). (F) Viability (MTT) of SL3cis spheroids after 16 days of growth, treated with cisplatin and/or 102-5 anti-CLPTM1L at the indicated concentrations beginning at 4 days post-seeding. *p<0.05, **p<0.005. (G) Photomicrographs of SL3cis spheroids after 16 days of growth, treated with cisplatin and/or 102-5 anti-CLPTM1L. (H) Western blotting of SL3cis spheroid lysates for caspase cleavage and Akt phosphorylation after 16 days of growth, treated with cisplatin and/or 102-5 anti-CLPTM1L. (I) Western blotting of SL3cis monolayer cultures for phospho- and total Akt following treatment with control (PSB) or 102-5 anti-CLPTM1L at the indicated concentrations.
# ID8 mouse epithelial ovarian cancer cells, A2780, Ovcar4, Panc1, and A549 human tumor cells were obtained from ATCC and authenticated within 6 months of experiments (RRIDs: CVCL_UI14, CVCL_0134, CVCL_0480, CVCL_1627, and CVCL_0023, respectively). Panc1, A2780, Ovcar4 and A549 were cultured in RPMI1640 plus 10% fetal bovine serum (FBS) (ThermoFisher, Waltham, MA). ID8 cells expressing luciferase were obtained from the Katherine Roby Laboratory at the University of Kansas and were authenticated within 6 months of experiments (RRID: CVCL_IU15). ID8 were cultured in DMEM with 4% FBS and 5 mg/ml Insulin transferrin selenium. […]
# Combination indices were calculated by: […]
# [2] = system: normal, benign, and tumor tissues; test: immunohistochemical staining of tumor microarray, tissue cross-reactivity; type: binding
# Description: FIG. 16 presents data characterizing tissue cross-reactivity (top) and tumor specificity (bottom) of clone 102-5.
# ID8-luc cells = test: viability of ID8-luc cells in vitro; type: cell-based, mouse
# Description: (A) Flow cytometry histograms of fluorescent labeling of live ID8-luc cells with 102-5 anti-CLPTM1L primary and Alexafluor-488-conjugated secondary antibodies. (B) Viability of ID8-luc cells treated with 100 nM 102-5 anti-CLPTM1L and/or 40 μM carboplatin for 5 days. (C) Relative tumor burden as measured by luciferin luminescence live animal imaging of control vs. 10 mg/kg 102-5 anti-CLPTM1L treated ID8-luc isograft groups (left) and individual animals (right). (D) Relative tumor burden as measured by luciferin luminescence live animal imaging of 10 mg/kg carboplatin plus either control or 102-5 anti-CLPTM1L (10 mg/kg) treated groups (left) and individual animals (right). (E) Final relative mean volumes of SL3 and SL3cis xenograft tumors 24 days post-inoculation. Mice were treated with 5 mg/kg 102-5 and/or 2.5 mg/kg cisplatin I. P. weekly. […]
# With disseminated peritoneal disease being the most common presentation upon recurrence of ovarian carcinoma, we utilized an orthotopic isograft model of disseminated peritoneal ovarian cancer. Human anti-CLPTM1L binding to luciferase-expressing ID8 ovarian tumor cells (ID8-luc) was detected by flow cytometry (FIG. 31A). […] Tumor load was monitored by luciferin luminescence using whole body imaging. […]
molecule,measurement,setting,value
"102-5: Human anti-CRR9/CLPTM1L IgG1; heavy chain V SEQ ID NO:30, light chain V SEQ ID NO:31 (antibody, V domains shown, Synthetic- Anti-CRR9/CLPTM1L clone 102-5 heavy chain V; Synthetic- Anti-CRR9/CLPTM1L clone 102-5 light chain V) VH: EVQLLESGGGLVQPGGSLRLSCAASGFSFSSYEMNWVRQAPGKGPEWISYISSGGGTIYYADSVRGRFTISRDNSNNTLYLQMNSLRPDDTAIYYCARDRGRKWLQLLFDSWGQGTLVTVSS VL: QAVLTQPPSASGTPGQKVTISCSGSSSNIGSNTVNWYQQLPGTAPKLLIYTNNQRPSGVPDRFSGSKSGASASLAISGLQSKDEADYYCAAWDDSLNGWVFGGGTKLTVLG",cell surface binding,[1],binding of 102-5 to the surface of lung (A549) and ovarian (A2780) tumor cells
same,isobole combination index,"MCW-SL3cis cells; 102-5 with cisplatin, two-way ANOVA p<0.05",0.65
same,"resistance to cisplatin (spheroid viability, size, number)","MCW-SL3cis cells; 16 days in culture, treatment from day 4",abrogated resistance to cisplatin in a dose-dependent manner
same,"anchorage independent growth, antibody alone","MCW-SL3cis cells; MCW-SL3cis and parental MCW-SL3 cells, dose-dependent, ANOVA p<0.0005",sufficient to inhibit anchorage independent growth
same,tumor specificity of tissue binding,[2],binding to tumor tissue with little to no binding to normal or benign tissues
same,viability,"ID8-luc cells; 100 nM 102-5, 5 days, ANOVA p<0.0001",decreased viability
same,carboplatin killing,"ID8-luc cells; 100 nM 102-5 and 40 μM carboplatin, 5 days, ANOVA p<0.05",increased carboplatin killing

# From patent US12129305B2, “Targeting CLPTM1L for treatment and prevention of cancer” (The Medical College of Wisconsin, Inc., priority 2018, dated 2024)
